{"source": "paper PMC4336329", "about": "(PLoS ONE, 2015)", "note": "Among all 310,000 compounds or so, about 2,200 (0.71%) showed an effect of 50% or more. The effect is printed as a negative number. The list shows a part of the results."}
{"biological_target": "human ether-à-go-go-related gene (hERG) potassium channel (human, UniProt Q12809)", "sequence (Q12809 whole entry, looked up)": "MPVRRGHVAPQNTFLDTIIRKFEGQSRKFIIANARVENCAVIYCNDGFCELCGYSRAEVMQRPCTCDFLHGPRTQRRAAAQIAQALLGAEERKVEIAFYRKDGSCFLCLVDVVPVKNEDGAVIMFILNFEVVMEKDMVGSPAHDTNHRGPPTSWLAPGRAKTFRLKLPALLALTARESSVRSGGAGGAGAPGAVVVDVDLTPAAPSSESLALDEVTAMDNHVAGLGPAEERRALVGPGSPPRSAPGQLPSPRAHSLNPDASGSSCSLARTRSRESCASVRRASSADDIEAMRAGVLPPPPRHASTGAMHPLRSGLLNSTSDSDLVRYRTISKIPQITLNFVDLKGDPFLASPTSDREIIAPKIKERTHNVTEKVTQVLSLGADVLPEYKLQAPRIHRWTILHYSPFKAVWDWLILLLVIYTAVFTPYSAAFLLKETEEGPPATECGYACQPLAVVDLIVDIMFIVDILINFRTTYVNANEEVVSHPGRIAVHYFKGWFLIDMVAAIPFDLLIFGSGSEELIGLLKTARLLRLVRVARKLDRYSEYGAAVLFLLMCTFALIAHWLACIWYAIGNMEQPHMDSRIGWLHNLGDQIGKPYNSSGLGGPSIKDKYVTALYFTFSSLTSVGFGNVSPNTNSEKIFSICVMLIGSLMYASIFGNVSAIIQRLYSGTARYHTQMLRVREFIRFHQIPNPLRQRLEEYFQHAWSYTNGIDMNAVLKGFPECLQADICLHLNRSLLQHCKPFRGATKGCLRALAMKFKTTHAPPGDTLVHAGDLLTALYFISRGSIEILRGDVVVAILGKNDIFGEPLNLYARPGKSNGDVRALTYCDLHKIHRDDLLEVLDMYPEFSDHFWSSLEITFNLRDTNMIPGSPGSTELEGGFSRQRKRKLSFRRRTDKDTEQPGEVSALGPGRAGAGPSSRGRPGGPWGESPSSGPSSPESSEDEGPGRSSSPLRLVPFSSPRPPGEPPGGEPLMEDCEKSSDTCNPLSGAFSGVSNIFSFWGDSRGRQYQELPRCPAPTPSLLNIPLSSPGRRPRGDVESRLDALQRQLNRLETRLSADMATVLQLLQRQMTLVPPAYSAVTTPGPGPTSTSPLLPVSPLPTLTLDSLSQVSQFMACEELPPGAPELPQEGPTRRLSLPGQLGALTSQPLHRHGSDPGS", "assay": "primary screen, population patch clamp on CHO cells stably expressing hERG", "units": {"hERG current change (%, negative = inhibition) at 1uM": "%"}}
{"compound": "CCC(C)C(=O)Nc1nnc(SCC(=O)N2C(C)CCCC2C)s1", "note": "(stereo not shown)", "hERG current change (%, negative = inhibition) at 1uM": 8.39}
{"compound": "COC(=O)c1cccc(NC(=O)c2cnn(C)c2)c1", "hERG current change (%, negative = inhibition) at 1uM": 9.08}
{"compound": "COc1ccc(CCNC(=O)COc2cc(=O)n(C)c3ccccc23)cc1OC", "hERG current change (%, negative = inhibition) at 1uM": 10.1}
{"compound": "CCn1nc(-c2ccccc2)c2nc3ccccc3nc21", "hERG current change (%, negative = inhibition) at 1uM": 7.53}
{"compound": "COC(=O)c1ccc(CN2CCC(n3nccc3NC(=O)C3CCCC3)CC2)cc1", "hERG current change (%, negative = inhibition) at 1uM": -26.7}
{"compound": "Cc1ccc(C(=O)CN2C(=O)c3ccccc3S2(=O)=O)cc1", "hERG current change (%, negative = inhibition) at 1uM": 14.6}
{"compound": "O=C(COC(=O)CNC(=O)c1ccc(-c2ccccc2)cc1)NCc1ccco1", "hERG current change (%, negative = inhibition) at 1uM": 10.5}
{"compound": "CCCCOC(=O)NC1(C)CCS(=O)(=O)C1", "note": "(stereo not shown)", "hERG current change (%, negative = inhibition) at 1uM": 22.2}
{"compound": "C=CCn1c(COc2ccc(OC)cc2)nc2ccccc21", "hERG current change (%, negative = inhibition) at 1uM": -8.21}
{"compound": "COc1ccc(/C=C(\\C#N)C(=O)Nc2cc(S(=O)(=O)N3CCCCC3)ccc2N2CCCCC2)cc1", "hERG current change (%, negative = inhibition) at 1uM": 7.8}
{"compound": "O=C(c1cccc(-c2ccco2)c1)N1CCCC(N2CCN(c3ccc(F)cc3)CC2)C1", "note": "(stereo not shown)", "hERG current change (%, negative = inhibition) at 1uM": -35.8}
{"compound": "COc1ccccc1CCNC(=O)C1(C)CC1(Cl)Cl", "note": "(stereo not shown)", "hERG current change (%, negative = inhibition) at 1uM": 17.4}
{"compound": "Cc1ccc(S(=O)(=O)C2C(=O)N(C)C3(C)CC2c2ccccc2O3)cc1C", "note": "(stereo not shown)", "hERG current change (%, negative = inhibition) at 1uM": 4.83}
{"compound": "Cc1csc(NC(=O)CSc2ccccc2F)n1", "hERG current change (%, negative = inhibition) at 1uM": 9.19}
{"compound": "CCN(CC)S(=O)(=O)c1ccc(NC(=O)CO/N=C(\\N)c2ccccc2)cc1", "hERG current change (%, negative = inhibition) at 1uM": 13.4}
{"compound": "COc1cc(CN2CCC(C(=O)N3CCN(c4ccccc4F)CC3)CC2)cc(OC)c1OC.O=C(O)C(=O)O", "hERG current change (%, negative = inhibition) at 1uM": -3.91}
{"compound": "CCN(CC(=O)Nc1c(F)cccc1F)C(=O)C1CCN(S(=O)(=O)c2ccc(F)cc2)CC1", "hERG current change (%, negative = inhibition) at 1uM": 8.96}
{"compound": "OCc1csc(=Nc2ccccc2)n1-c1ccccc1", "hERG current change (%, negative = inhibition) at 1uM": 5.08}
{"compound": "Cc1ccc(C)c(CSc2nnc([C@@H](N)C(C)C)o2)c1.Cl", "hERG current change (%, negative = inhibition) at 1uM": 13.5}
{"compound": "Cc1cccc(NC(=O)c2nc[nH]c2C(=O)N[C@@H](CCCCNC(=O)OC(C)(C)C)C(=O)OC(C)(C)C)c1", "hERG current change (%, negative = inhibition) at 1uM": 16.4}
{"compound": "COc1ccc(-n2c(C)nc3cc(C(=O)NCc4ccc5c(c4)OCO5)ccc32)cc1", "hERG current change (%, negative = inhibition) at 1uM": 10.4}
{"compound": "CC1CCCCC12NC(=O)N(CC(=O)Nc1sc3c(c1C(N)=O)CCC3)C2=O", "note": "(stereo not shown)", "hERG current change (%, negative = inhibition) at 1uM": 8.61}
{"compound": "CS(=O)(=O)c1ccc(Cl)c(NC(=O)COc2ccc3c(c2)CCC3)c1", "hERG current change (%, negative = inhibition) at 1uM": -0.059}
{"compound": "COc1ccc(C(C)(C)C)cc1NS(=O)(=O)c1cccc2cccnc12", "hERG current change (%, negative = inhibition) at 1uM": 13.2}
{"compound": "Cc1cc(N)n(-c2ccccc2)n1", "hERG current change (%, negative = inhibition) at 1uM": 11.4}
{"compound": "O=C(CSc1nnc(Cc2cccs2)n1C1CC1)NC1CCS(=O)(=O)C1", "note": "(stereo not shown)", "hERG current change (%, negative = inhibition) at 1uM": 11.2}
{"compound": "Cc1nc(NC(=O)c2ccccc2)sc1Cc1ccc2c(c1)OCO2", "hERG current change (%, negative = inhibition) at 1uM": 11.5}
{"compound": "COc1cc(NS(=O)(=O)c2ccc(NC(=O)NC3CCCCC3)cc2)nc(OC)n1", "hERG current change (%, negative = inhibition) at 1uM": 6.08}
{"compound": "O=C(CN1CCOCC1)Nc1nc2cc([N+](=O)[O-])ccc2s1", "hERG current change (%, negative = inhibition) at 1uM": 0.248}
{"compound": "Cc1ccc(C(=O)CN2C(=O)C(C)Oc3ccccc32)cc1", "note": "(stereo not shown)", "hERG current change (%, negative = inhibition) at 1uM": 5.74}
{"compound": "O=C(NCCS(=O)(=O)NCc1ccccc1Cl)c1ccccc1", "hERG current change (%, negative = inhibition) at 1uM": 4.38}
{"compound": "CCCCn1c(N)c(N(CCOC)C(=O)CCc2ccc(OC)cc2)c(=O)[nH]c1=O", "hERG current change (%, negative = inhibition) at 1uM": 5.93}
{"compound": "C=CCNC(=O)COC(=O)c1ccc(Cl)c(S(N)(=O)=O)c1", "hERG current change (%, negative = inhibition) at 1uM": 12}
{"compound": "CN(CC(=O)NCc1ccccn1)S(=O)(=O)c1ccccc1", "hERG current change (%, negative = inhibition) at 1uM": 2.56}
{"compound": "Cc1nc(NCc2ccco2)[nH]c(=O)c1CCC(C)C", "hERG current change (%, negative = inhibition) at 1uM": 6.9}
{"compound": "CC(OC(=O)COc1ccccc1[N+](=O)[O-])C(=O)Nc1ccc(N2CCOCC2)cc1", "note": "(stereo not shown)", "hERG current change (%, negative = inhibition) at 1uM": 12.4}
{"compound": "COc1cc(CNC2CCCC2)cc(Cl)c1OCc1ccc(F)cc1.Cl", "hERG current change (%, negative = inhibition) at 1uM": 2.49}
{"compound": "CN(Cc1ccccc1)C(=O)CN1C(=O)NC2(CCCC2)C1=O", "hERG current change (%, negative = inhibition) at 1uM": -0.477}
{"compound": "CCOC(=O)C1=NN(c2ccccc2C)C2=NC(C)=C(C(=O)OC)C(c3cccs3)N12", "note": "(stereo not shown)", "hERG current change (%, negative = inhibition) at 1uM": 7.41}
{"compound": "O=C(NCc1ccco1)/C(=C/c1cccc(C(F)(F)F)c1)c1nc2ccccc2[nH]1", "hERG current change (%, negative = inhibition) at 1uM": 22.2}
{"compound": "CCOCCCN(Cc1ccco1)S(=O)(=O)c1csc(C(N)=O)c1", "hERG current change (%, negative = inhibition) at 1uM": 20}
{"compound": "COc1cccc(C2NC(=S)NC(C)=C2C(=O)c2ccccc2)c1OC", "note": "(stereo not shown)", "hERG current change (%, negative = inhibition) at 1uM": 14.2}
{"compound": "CCCC(c1nnnn1Cc1ccccc1)N1CCC(C(N)=O)CC1.Cl", "note": "(stereo not shown)", "hERG current change (%, negative = inhibition) at 1uM": 6.46}
